# Reference: PubChem BioAssay AID1347165 (National Center for Advancing Translational Sciences (NCATS), 2019)
# Where “and” joins values, the source holds several entries; their conditions need not be identical. Equal values may be shown once. Among all 220,000 compounds or so, about 5,700 (2.6%) were called active. Inconclusive results, whose numbers are uncertain, are shown with a selection of clear calls. Calls follow the shape of the dose curve; as a rule, active = well fitted inhibition curve with a large enough effect; inconclusive = small, poorly fitted or top-dose-only effect; inactive = no such curve, though single readings can be large or run the other way. Where the call is inconclusive, the potency comes from a doubtful curve fit.
# Target: Lysine-specific demethylase 5B (Homo sapiens) (UniProt Q9UGL1)
# Test: Primary screen for KDM5B Histone Demethylases FDH-coupled qHTS; also: nearly all actives have a fitted effect of over 70% in size; as to activity change, negative = inhibition: 0% is about no effect
# Details: FDH-coupled NADH fluorescence (FDH is formaldehyde dehydrogenase); activity change, negative = inhibition: at 57.7 µM (top of the series) unless noted
# In short: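 qHTS format, multiple compound concentrations. Buffer 50 mM HEPES pH 7.5/0.01% Tween-20; 200 nM KDM5BΔAP final; 10 min compound preincubation; substrate-mix levels 12.5 µM peptide, 25 µM α-KG, 0.25 mM NAD⁺; 30 min RT; ΔRFU.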
# Potency is read from the fitted curve at half-maximal effect; tags tell the direction and shape of the fitted curve.
# Sequence of UniProt Q9UGL1 (Q9UGL1 whole entry, looked up): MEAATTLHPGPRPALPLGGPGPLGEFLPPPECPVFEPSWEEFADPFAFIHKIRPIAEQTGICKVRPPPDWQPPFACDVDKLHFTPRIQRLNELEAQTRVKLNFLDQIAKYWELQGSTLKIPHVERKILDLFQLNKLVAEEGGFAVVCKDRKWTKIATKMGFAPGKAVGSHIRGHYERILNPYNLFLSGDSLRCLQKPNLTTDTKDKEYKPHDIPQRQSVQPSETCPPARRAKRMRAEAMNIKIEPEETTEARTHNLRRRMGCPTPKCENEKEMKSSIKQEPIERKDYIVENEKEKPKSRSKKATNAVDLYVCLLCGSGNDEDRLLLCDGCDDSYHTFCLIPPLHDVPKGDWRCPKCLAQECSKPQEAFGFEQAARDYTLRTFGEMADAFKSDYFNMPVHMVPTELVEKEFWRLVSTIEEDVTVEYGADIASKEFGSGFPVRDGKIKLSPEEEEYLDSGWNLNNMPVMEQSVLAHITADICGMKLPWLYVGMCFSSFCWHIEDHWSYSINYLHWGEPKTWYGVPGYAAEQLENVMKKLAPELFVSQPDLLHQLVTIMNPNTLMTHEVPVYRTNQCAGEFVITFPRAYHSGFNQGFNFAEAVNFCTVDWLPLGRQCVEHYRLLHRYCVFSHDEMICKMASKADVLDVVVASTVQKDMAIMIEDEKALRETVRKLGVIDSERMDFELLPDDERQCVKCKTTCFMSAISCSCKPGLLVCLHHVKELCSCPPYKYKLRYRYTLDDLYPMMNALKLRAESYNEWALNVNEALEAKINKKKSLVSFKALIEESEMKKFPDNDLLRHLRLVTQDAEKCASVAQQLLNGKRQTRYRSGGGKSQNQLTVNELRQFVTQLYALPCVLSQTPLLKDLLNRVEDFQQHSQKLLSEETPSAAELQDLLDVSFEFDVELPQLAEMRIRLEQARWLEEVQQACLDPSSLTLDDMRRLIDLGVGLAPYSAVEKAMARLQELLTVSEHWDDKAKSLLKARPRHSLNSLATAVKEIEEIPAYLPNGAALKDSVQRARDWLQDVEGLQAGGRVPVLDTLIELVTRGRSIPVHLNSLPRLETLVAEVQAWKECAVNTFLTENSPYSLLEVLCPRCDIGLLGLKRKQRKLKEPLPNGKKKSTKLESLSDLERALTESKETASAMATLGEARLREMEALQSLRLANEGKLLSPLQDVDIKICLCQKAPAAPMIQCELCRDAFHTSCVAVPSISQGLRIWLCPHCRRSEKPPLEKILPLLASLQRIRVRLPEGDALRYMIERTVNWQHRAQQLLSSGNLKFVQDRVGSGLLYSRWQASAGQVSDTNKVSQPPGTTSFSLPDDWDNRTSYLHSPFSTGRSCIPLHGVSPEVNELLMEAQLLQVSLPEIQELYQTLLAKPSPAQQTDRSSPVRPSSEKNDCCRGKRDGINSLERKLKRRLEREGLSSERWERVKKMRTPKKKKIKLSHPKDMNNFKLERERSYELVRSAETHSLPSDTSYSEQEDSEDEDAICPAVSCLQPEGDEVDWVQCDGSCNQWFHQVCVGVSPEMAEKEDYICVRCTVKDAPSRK
Structure (SMILES),Potency,"activity change, negative = inhibition"
COc1ccc(-n2cc(-c3ccccc3)[nH]c2=S)c(OC)c1,"inconclusive: 39.8 µM [inhibitor, partial curve, poor fit]",–
CCCCN(C)S(=O)(=O)c1ccc(C(=O)Nc2sc3c(c2C(=O)OCC)CCN(C(C)C)C3)cc1,"inconclusive: 25.1 µM [inhibitor, partial curve, poor fit]",–
CN1CCC(O)(Cc2nc3c([nH]2)CC(C)(C)CNC3=O)CC1,inactive,–
O=C1Nc2ccc(-c3ccc4c(c3)OCO4)cc2C(=O)N2C[C@@H](NS(=O)(=O)c3ccc(F)cc3)C[C@@H]12,active: 31.6 µM,–
COc1ccc(N(Cc2cc3cc(OC)ccc3[nH]c2=O)S(C)(=O)=O)cc1,"inconclusive: 28.2 µM [inhibitor, partial curve, poor fit]",–
CCn1c(-c2ccc[nH]c2=O)nc2ccccc21,"inconclusive: 25.1 µM [inhibitor, partial curve, poor fit]",–
COc1ccc(S(=O)(=O)NCCc2sc(-c3cccnc3)nc2C)cc1,"inconclusive: 25.1 µM [inhibitor, partial curve, poor fit]",–
Cc1cc(C)c(-c2nc3ncccc3[nH]2)[nH]1,"inconclusive: 141 µM [inhibitor, partial curve, poor fit] and active: 35.5 µM",–
O=C(Cc1ccc(Cl)cc1)N1CCc2c(nc3cc[nH]n3c2=O)C1,active: 31.6 µM,–
CC1(c2ccccc2)N(Cc2ccccc2)C(=O)OC12CCN(Cc1cccnc1N)CC2 (centres undefined),"inconclusive: 31.6 µM [inhibitor, single point]",–
CN1[C@@H](CCC(=O)N2CCN(c3ccccc3)CC2)CNC(=O)[C@@H]2[C@H]1CCN2Cc1csnn1,inactive,–
CC(C)Oc1ccc(/C=C(/C#N)C(=O)c2ccccc2F)cc1,"inconclusive: 39.8 µM [inhibitor, single point]",–
Cc1oc2c(c1C(=O)NC1CCN(C)CC1)CN(C)CC2,"inconclusive: 39.8 µM [inhibitor, partial curve, poor fit]",–
COc1cccc2[nH]c3c(N4CCC5(CC4)OCCO5)ncnc3c12,"inconclusive: 28.2 µM [inhibitor, partial curve, poor fit]",–
COc1cc(/C=C/c2nc3ccccc3s2)cc(OC)c1,"inconclusive: 1.78 µM [inhibitor, partial curve, poor fit]",–
COC(=O)CN1C(=O)C(O)(c2c(C)[nH]c3ccccc23)c2ccccc21 (centres undefined),–,inconclusive: -30.6% [inhibitor]
COCc1ccc2c(c1)c(OC(C)(C)C(=O)Nc1ccn(C)n1)nn2CCC(C)C,"inconclusive: 35.5 µM [inhibitor, partial curve]",–
CC(C)N1CC[C@H](c2nc3ccc(C(F)(F)F)cc3[nH]2)C1,"inconclusive: 31.6 µM [inhibitor, single point]",–
Cc1cc(S(=O)(=O)Nc2cc3c(cc2N2CCOCC2)n(C)c(=O)c(=O)n3C)ccc1F,"inconclusive: 25.1 µM [inhibitor, partial curve, poor fit]",–
FC(F)(F)c1ccc(N2CCC(N[C@@H]3C[C@@H]4OCC[C@@H]43)CC2)nc1,active: 20 µM,–
O=C(c1ccc(-c2cccc(O)c2)nc1)N1CCCN(c2ncccn2)CC1,"inconclusive: 22.4 µM [inhibitor, single point]",–
COc1ccc(-c2noc(-c3nc(Cc4ccccc4)no3)n2)cc1OC,active: 28.2 µM,–

Structure (SMILES),Potency,"activity change, negative = inhibition"
O=C(CSC1=NC2(CCCCC2)Nc2ccccc21)Nc1ccc2c(c1)OCO2,"inconclusive: 28.2 µM [inhibitor, partial curve, poor fit]",–
CCC1CN(C(=O)c2ccc3nc(-c4ccccc4)cn3c2)CCN1C(C)C (centres undefined),active: 28.2 µM,–
O=C(NCc1coc(-c2cccs2)n1)c1cc(F)c(Cl)cc1Cl,"inconclusive: 35.5 µM [inhibitor, partial curve, poor fit]",–
O=C(Nc1cccc(Br)c1)c1cc(S(=O)(=O)N2CCCCC2)c[nH]1,"inconclusive: 35.5 µM [inhibitor, partial curve, poor fit]",–
COc1ccc(-c2nc3n(n2)C(c2ccc(O)cc2)C(C(=O)Nc2cccnc2)=C(C)N3)cc1OC (centres undefined),"inconclusive: 31.6 µM [inhibitor, single point]",–
O=C(NCc1cccnc1)c1nc(-c2cccc(F)c2)c2cnccn12,active: 89.1 µM and active: 22.4 µM,–
C=CCNC(=O)c1ccn2cncc2c1,inactive,–
N#Cc1ccc(CN2CC[C@H]3C(=O)NCCCCCCN(Cc4ccncc4)[C@@H]3C2)cc1,"inconclusive: 17.8 µM [inhibitor, partial curve, poor fit]",–
COc1ccc(NC(=O)C(NC(=O)/C=C\c2ccc3c(c2)OCO3)c2ccc(C)cc2)cc1 (centres undefined),"inconclusive: 14.1 µM [inhibitor, partial curve, poor fit]",–
CCc1ccc(-n2c(N3CCN(c4ccc(F)cc4)CC3)nc3ccccc3c2=O)cc1,"inconclusive: 39.8 µM [inhibitor, partial curve, poor fit]",–
OCC1(CC2CC2)CCCN(Cc2ccc(C(F)(F)F)nc2)C1 (centres undefined),inactive,–
COCCNC(=O)CCn1nc(-c2ccc(Cl)cc2)c2ccccc2c1=O,–,inconclusive: -36.3% [inhibitor] [at 11.5 µM]
O=C(C1Cn2cccc2C(=O)N1Cc1ccccc1)N1CCc2ccccc2C1 (centres undefined),inactive,–
CC(NC(=O)Cc1c(F)cccc1Cl)C(=O)N1CCN(c2ccccn2)CC1 (centres undefined),"inconclusive: 22.4 µM [inhibitor, single point]",–
Cc1ccc(C(=O)N2CCN(c3oc(C4CC4)nc3C#N)CC2)c(C)c1,inactive,–
O=C(CSc1nc2cc(Cl)ccc2c(=O)n1Cc1ccccc1)N1CCCCC1,inactive,–
O=C(Nc1ccc2oc(-c3cccnc3)nc2c1)c1ccccc1F,"inconclusive: 31.6 µM [inhibitor, partial curve, poor fit] and inconclusive: 15.8 µM [inhibitor, partial curve, poor fit]",–
COc1ccc(Nc2ccc3c(n2)CN(Cc2ccccc2C)C(=O)CO3)cn1,"inconclusive: 56.2 µM [inhibitor, single point]",–
Cc1cnc2c(S(=O)(=O)NCC3CCOC3)cccc2c1 (centres undefined),inactive,–
CCN(CC)CCNc1nc2c(c(=O)[nH]c(=O)n2C)n1Cc1ccc(Cl)cc1,"inconclusive: 28.2 µM [inhibitor, partial curve, poor fit]",–
COC1CCCN(c2ncccc2-c2cc(-c3ccccc3)nc3c(C)noc23)C1 (centres undefined),active: 39.8 µM,–
CCOC(=O)C1=NNC(C(=O)c2ccccc2)C1c1ccc(C)cc1 (centres undefined),"inconclusive: 39.8 µM [inhibitor, partial curve, poor fit]",–

Structure (SMILES),Potency,"activity change, negative = inhibition"
CC(=O)N1CCCC2(C1)CN(C)c1ccc(C(=O)NC(C)C)cc12 (centres undefined),active: 35.5 µM,–
CN(C)C[C@@H]1CN(c2ncccn2)C[C@H]1NC(=O)Cc1c[nH]c2ccccc12,"inconclusive: 25.1 µM [inhibitor, single point]",–
CCOC(=O)C1=C(COC(=O)c2ccccc2C(F)(F)F)NC(=O)NC1c1ccco1 (centres undefined),inactive,–
Cc1ccccc1-n1nc(C)c(CCC(=O)NC(C)C)c1Oc1cccc(F)c1,"inconclusive: 28.2 µM [inhibitor, single point]",–
CCc1cc2c(CN3CCN(c4ccc(F)cc4)CC3)cc(=O)oc2cc1O,"inconclusive: 31.6 µM [inhibitor, partial curve, poor fit] and inconclusive: 25.1 µM [inhibitor, partial curve, poor fit]",–
Cc1ccc(S(=O)(=O)N(C)CCc2noc(-c3ccccc3Cl)n2)c2nsnc12,inactive,–
CCCc1ccc(S(=O)(=O)NCC2CCCN2CC)cc1 (centres undefined),inactive,–
O=C(CN1C(=O)CC(c2ccccc2)Sc2ccccc21)Nc1ccc(Br)cc1 (centres undefined),inactive,–
Cc1noc(C)c1S(=O)(=O)N(CC(=O)NCc1ccccc1)c1ccc(C(C)C)cc1,"inconclusive: 10 µM [inhibitor, partial curve, poor fit]",–
CCCCOc1ccc(C(N)C(=O)OCC)cc1 (centres undefined),inactive,–
CN(C)c1ccc(-c2nnnn2[C@H]2CO[C@H]3[C@@H]2OC[C@@H]3NC(=O)NCc2ccccc2)cc1,inactive,–
O=C(Nc1cnc(-c2cccc(Cl)c2)nc1)C1CCCO1 (centres undefined),inactive,–
Cc1ccc2oc(=O)cc(CSc3nc(C)cc(C)c3C#N)c2c1,"inconclusive: 5.01 µM [inhibitor, full curve, poor fit]",–
CCc1nc(NC(=O)C2CC(=O)N(c3n[nH]c4cc(Br)ccc34)C2)sc1C (centres undefined),"inconclusive: 28.2 µM [inhibitor, partial curve, poor fit]",–
CC(=O)N1CCC(N2CC[C@H](c3nc4ccccc4s3)C2)CC1,active: 31.6 µM,–
CC(C)(C)c1cc(C[C@H]2CNCC[C@H]2CC(=O)NC2CCCCC2)no1,"inconclusive: 39.8 µM [inhibitor, partial curve]",–
COc1ccc(Cn2c(=O)n(-c3ccc(C)cc3)c(=O)c3c2c2cc(C)ccc2n3C)cc1,"inconclusive: 2.51 µM [inhibitor, partial curve, poor fit]",–
COc1ccccc1CNC(=O)c1ccc(-c2csc(C3CC3)n2)cc1,"inconclusive: 20 µM [inhibitor, single point]",–
COc1cccc(OCC(=O)NCc2cccc(CN3CCCC3)c2)c1,inactive,–
COc1cccc(CNC(=O)c2nn(C)c3c2CSc2ccccc2-3)c1,"inconclusive: 5.62 µM [inhibitor, partial curve, poor fit]",–
